Measured values taken from PubChem BioAssay AID2147 (National Center for Advancing Translational Sciences (NCATS), 2009).
Out of some 230,000 compounds screened, about 3,600 (1.6%) were called active. The inconclusive results got no clear call from the source; some entries with a clear call stand among them for comparison. Calls follow the shape of the dose curve; as a rule, active = well fitted inhibition curve with a large enough effect (not every such curve was filed as active); inconclusive = small, poorly fitted or top-dose-only effect, or another doubt; inactive = no such curve, though single readings can be large or run the other way. Potencies beside an inconclusive call are fits to weak or partial responses and may not hold up. A structure can be active in one record and inactive in another.

biological target: Lysine-specific demethylase 4E (Homo sapiens) (UniProt B2RXH2); experiment: qHTS Assay for Inhibitors of Human Jumonji Domain Containing 2E (JMJD2E); conditions: JMJD2E catalytic domain, FDH-coupled NADH fluorescence (FDH is formaldehyde dehydrogenase); series mostly up to 57.1 µM; activity change, negative = inhibition: at the top concentration
Also: nearly all actives have a fitted effect of over 50% in size.
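For activity change, negative = inhibition in this document: 0% = wells with enzyme and -100% = buffer wells without enzyme.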
Potency is read from the fitted curve at half-maximal effect; tags tell the direction and shape of the fitted curve.

UniProt B2RXH2, sequence (B2RXH2 whole entry, looked up, the tested form may be a part): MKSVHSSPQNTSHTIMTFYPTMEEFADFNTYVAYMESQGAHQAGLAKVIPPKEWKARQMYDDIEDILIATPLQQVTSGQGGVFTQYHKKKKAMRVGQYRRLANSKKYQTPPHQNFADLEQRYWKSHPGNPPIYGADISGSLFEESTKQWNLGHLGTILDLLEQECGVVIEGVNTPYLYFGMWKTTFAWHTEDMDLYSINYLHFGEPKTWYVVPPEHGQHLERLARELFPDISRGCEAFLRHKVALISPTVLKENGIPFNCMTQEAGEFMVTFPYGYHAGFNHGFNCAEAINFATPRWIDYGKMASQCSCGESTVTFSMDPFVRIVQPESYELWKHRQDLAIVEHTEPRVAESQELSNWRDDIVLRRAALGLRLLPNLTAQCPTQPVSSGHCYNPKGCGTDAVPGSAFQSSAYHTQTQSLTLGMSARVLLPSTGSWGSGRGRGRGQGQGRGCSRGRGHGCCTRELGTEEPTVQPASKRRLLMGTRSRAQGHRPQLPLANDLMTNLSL

Row | Structure (SMILES) | activity change, negative = inhibition | Potency
1 | C/C(=C\c1ccc(N(C)C)cc1)[N+](=O)[O-] | inactive: 0.602% | –
2 | Cc1ccc(-c2nc(N3CCOCC3)s[n+]2-c2ccccc2)cc1 | inactive: -24.7% | –
3 | COCCCn1c(N)c(C(=O)NCc2ccco2)c2nc3ccccc3nc21 | – | inconclusive: 28.2 µM [inhibitor, partial curve]
4 | COc1ccc(N2C(=O)CC(N3CC=C(c4ccccc4)CC3)C2=O)cc1 (stereo unspecified) | – | inconclusive: 39.8 µM [inhibitor, single point]
5 | CC1=C(O)C(=O)C=C2C1=CC=C1[C@]2(C)CC[C@@]2(C)C3C[C@](C)(C(=O)O)CC[C@@]3(C)CC[C@@]12C (stereo partly specified) | – | inconclusive: 31.6 µM [inhibitor, single point]
6 | CCC(N)C(O)c1ccc(O)c(O)c1 (stereo unspecified) | – | active: 14.1 µM
7 | COc1ccc(N2C(=O)NC(=O)/C(=C/c3ccc([N+](=O)[O-])s3)C2=O)cc1 | – | active: 20 µM
8 | Cc1ccc(NC(=O)CSc2nnc([C@@H](N)Cc3c[nH]c4ccccc34)o2)c(C)c1 | inactive: 8.99% | –
9 | Fc1ccc(C2N3CCCN23)cc1 (stereo unspecified) | inactive: 0.294% | –
10 | O=C(O)CC1OCC=C2CN3CCC45C6=CC(=O)C(=O)C([N+](=O)[O-])=C6NC4C1C2CC35 (stereo unspecified) | – | active: 0.0631 µM
11 | CCCCC(=O)N/N=C/c1c(O)n(-c2ccccc2)c(=O)[nH]c1=O | – | inconclusive: 28.2 µM [inhibitor, single point]
12 | COC(=O)c1ccccc1N=Cc1c(O)[nH]c(=S)[nH]c1=O | – | inconclusive: 31.6 µM [inhibitor, partial curve]
13 | COc1ccccc1N1CCN(Cc2ccccc2F)CC1 | – | inconclusive: 35.5 µM [inhibitor, single point]
14 | CC/C=C\C/C=C\C/C=C\C/C=C\C/C=C\CCCC(=O)NCCc1ccc(O)c(O)c1 | inactive: 1.69% | –
15 | CN(C)c1ccc(/C=C2\C(=O)NC(=O)N(Cc3ccc(F)cc3)C2=O)cc1 | – | inconclusive: 39.8 µM [inhibitor, single point]
16 | O=C1NC(=O)C(=Cc2coc3ccccc3c2=O)C(=O)N1 | – | active: 20 µM
17 | O=C(c1ccc(F)cc1)N1CCC(N2CCCCCC2)CC1 | – | inconclusive: 31.6 µM [inhibitor, single point]
18 | O=C(c1cccn2c(=O)c3ccc(Cl)cc3nc12)N1CCC2(CC1)OCCO2 | – | inconclusive: 2.51 µM [inhibitor, partial curve]
19 | CC1(C)N(O)C(c2ccc(C(=O)O)cc2)=[N+]([O-])C1(C)C | inactive: 4.25% | –
20 | CC(C(=O)c1ccc2ccccc2c1)N1CCCCC1 (stereo unspecified) | – | inconclusive: 31.6 µM [inhibitor, partial curve]
21 | COc1cc2c(cc1OC)[C@H](C)NCC2 | inactive: -0.346% [at 25.5 µM] | –
22 | C=C1C/C(=C\C)C(=O)O[C@@H]2CCN3CC=C(COC(=O)[C@@]1(C)O)[C@H]23 | – | inconclusive: 11.2 µM [inhibitor, partial curve, poor fit]
23 | CCC(=NCCc1c[nH]c2ccccc12)c1c(O)n(C)c(=O)n(C)c1=O | inactive: -3.5% | –
24 | O=C(c1cccc(Cl)c1)C1CCCN(Cc2cccc3cnccc23)C1 (stereo unspecified) | inactive: 1.27% | –

Row | Structure (SMILES) | activity change, negative = inhibition | Potency
25 | Fc1ccc(Cn2nnnc2CN2CCC(n3nnc4cc(C(F)(F)F)ccc43)CC2)cc1 | inactive: 0.281% | –
26 | COc1ccc(-c2cc(C(F)(F)F)n3nc(C(=O)N4CCC5(CC4)OCCO5)cc3n2)cc1OC | – | inconclusive: 31.6 µM [inhibitor, single point]
27 | CCOC(=O)c1cc2c(cn1)[nH]c1ccccc12 | – | inconclusive: 20 µM [inhibitor, partial curve]
28 | Clc1ccc(OCC#CCN2CCCC2)cc1 | – | inconclusive: 31.6 µM [inhibitor, single point]
29 | CC1=C2C3OC(=O)[C@H](C)[C@H]3CC[C@@]2(C)C=CC1=O (stereo partly specified) | inactive: 11.6% | –
30 | CCOC(=O)c1c(NS(=O)(=O)c2ccccc2)n(CCCOC)c2nc3ccccc3nc12 | – | inconclusive: 25.1 µM [inhibitor, partial curve]
31 | COP(=O)(OC)c1nc(-c2cccc3ccccc23)oc1N1CCCCC1 | – | inconclusive: 28.2 µM [inhibitor, partial curve]
32 | C=C(C)[C@H]1Cc2c(ccc3c2O[C@@H]2COc4cc(OC)c(OC)cc4[C@@H]2C3=O)O1 | – | inconclusive: 39.8 µM [inhibitor, single point]
33 | CN1CCC(O)(c2ccccc2)C(C(=O)c2ccccc2)C1 (stereo unspecified) | inactive: -0.386% | –
34 | O=C(N/N=C/c1c(O)n(CCc2ccccc2)c(=O)[nH]c1=O)c1ccccc1 | – | inconclusive: 35.5 µM [inhibitor, single point]
35 | CSc1ccc(C(=O)C2CCCN(Cc3cccnc3)C2)cc1 (stereo unspecified) | inactive: -3.83% | –
36 | O=C(NC1(C(F)(F)F)Oc2ccc(Cl)cc2O1)N1CCC2(CC1)OCCO2 (stereo unspecified) | – | active: 15.8 µM
37 | N[C@@H](CCl)C(=O)O | inactive: -9.81% | –
38 | CC(C)(C)NCC(O)c1cc(Cl)c(N)c(Cl)c1 (stereo unspecified) | – | inconclusive: 25.1 µM [inhibitor, single point]
39 | CC(Cc1ccsc1)NCc1cn[nH]c1-c1ccc(F)cc1F (stereo unspecified) | – | inconclusive: 39.8 µM [inhibitor, single point]
40 | O=C(Nc1cccc2ccccc12)N1CCC2(CC1)OCCO2 | – | inconclusive: 14.1 µM [inhibitor, partial curve]
41 | CCOc1ccc(-n2c(O)c(C=Nc3ccc(NC(C)=O)cc3)c(=O)[nH]c2=O)cc1 | – | inconclusive: 35.5 µM [inhibitor, single point]
42 | CC(C)[C@@]1(NC(=O)[C@@H]2C[C@H]3c4cccc5[nH]cc(c45)C[C@@H]3N(C)C2)O[C@]2(O)[C@H]3CCCN3C(=O)CN2C1=O | inactive: -15.4% [at 25.5 µM] | –
43 | Cc1ccc(N2C(=O)NC(=O)/C(=C/c3ccc(OC(=O)c4cccs4)cc3)C2=O)cc1 | – | active: 20 µM
44 | COC(=O)C[C@]1(C(=O)OC)CN(C#N)N(c2ccc(Cl)cc2)C12c1ccccc1-c1ccccc12 | inactive: -2.45% | –
45 | Cc1nn(-c2ccccc2)c2c1C(c1ccc3c(c1)OCO3)SCC(=O)N2 (stereo unspecified) | inactive: -3.64% | –
46 | O=C(N/N=C\C1C(=O)NC(=S)N(c2ccccc2)C1=O)c1ccc(O)cc1 (stereo unspecified) | – | inconclusive: 39.8 µM [inhibitor, single point]
47 | C=CCOC(=O)C1=C(C)OC(N)=C(C#N)[C@@]12C(=O)N(CC(N)=O)c1ccccc12 | inactive: 6.35% | –
48 | S=c1[nH]nc(-c2ccn[nH]2)n1-c1ccccc1Cl | – | inconclusive: 39.8 µM [inhibitor, single point]

Row | Structure (SMILES) | activity change, negative = inhibition | Potency
49 | Cc1c(OCC(F)(F)F)ccnc1CS(=O)c1nc2ccccc2[nH]1 (stereo unspecified) | – | active: 14.1 µM
50 | CC(=O)c1ccccc1NC(=O)C1C2CCC(O2)C1C(=O)O (stereo unspecified) | – | inconclusive: 39.8 µM [inhibitor, single point]
51 | Cc1c(C(c2ccc(Br)cc2)c2c(O)c3ccccc3oc2=O)c(=O)n(-c2ccccc2)n1C (stereo unspecified) | – | inconclusive: 31.6 µM [inhibitor, single point]
52 | COc1ccccc1OCCNC(=O)c1cc(=O)[nH]c2ccccc12 | – | inconclusive: 20 µM [inhibitor, partial curve]
53 | COc1ccc(Cn2c(N)c(C(=O)NCc3ccco3)c3nc4ccccc4nc32)cc1OC | – | inconclusive: 31.6 µM [inhibitor, partial curve]
54 | Cc1cc(OCC(=O)NC2CCS(=O)(=O)C2)c2c3c(c(=O)oc2c1)CCC3 (stereo unspecified) | – | inconclusive: 31.6 µM [inhibitor, partial curve]
55 | CC(C)C[C@H]1C(=O)N2CCCC2[C@]2(O)O[C@](NC(=O)[C@@H]3C=C4c5cccc6[nH]c(Br)c(c56)C[C@H]4N(C)C3)(C(C)C)C(=O)N12 (stereo partly specified) | – | inconclusive: 39.8 µM [inhibitor, single point]
56 | COC1=C[C@H]2[C@H]3Cc4ccc(OC)c(O)c4[C@@]2(CCN3C)CC1=O | – | inconclusive: 14.1 µM [inhibitor, partial curve]
57 | O=C1C2CCN(CC2)[C@@H]1Cc1ccc2ccccc2c1O | inactive: -22.8% | –
58 | O=C1NC(=O)N(c2ccccc2)C(=O)/C1=C\c1ccc2c3c(cccc13)CC2 | – | inconclusive: 28.2 µM [inhibitor, partial curve]
59 | O=C1NC(=O)N(Cc2ccc(F)cc2)C(=O)/C1=C\c1ccc([N+](=O)[O-])s1 | – | active: 28.2 µM
60 | Cn1c(O)c(C=NCCN2CCN(C(=O)c3ccccc3)CC2)c(=O)n(C)c1=O | – | inconclusive: 28.2 µM [inhibitor, single point]
61 | O=C(Nc1ccc(-c2nc3ccccc3c(=O)o2)cc1)c1ccco1 | – | inconclusive: 7.08 µM [inhibitor, single point]
62 | CCOC(=O)C1(c2ccccc2)CCN(Cc2cccc(C(=O)O)c2)CC1 | – | inconclusive: 39.8 µM [inhibitor, single point]
63 | CCN(CCO)c1ccc(N=Cc2c(O)n(C)c(=S)[nH]c2=O)cc1 | – | inconclusive: 1.41 µM [inhibitor, partial curve]
64 | NNC(=O)c1ccc(O)cc1 | inactive: 4.58% | –
65 | Oc1ccccc1O | – | active: 14.1 µM
66 | CC1(C)CC(=O)c2cc(OCC(=O)N3CCN(Cc4ccccc4)CC3)ccc2O1 | – | inconclusive: 28.2 µM [inhibitor, partial curve]
67 | CCCc1nc2ccc(Br)cc2c(=O)n1-c1ccc([N+](=O)[O-])c(C(F)(F)F)c1 | inactive: 2.72% | –
68 | O=C(N/N=C/c1c(O)n(CCC2=CCCCC2)c(=S)[nH]c1=O)c1ccccc1 | – | inconclusive: 35.5 µM [inhibitor, single point]
69 | Fc1ccc(CNCCc2ccccc2)cc1 | – | active: 31.6 µM
70 | Cc1nc(Cl)sc1C(=O)Nc1ccc2ccccc2c1 | – | inconclusive: 35.5 µM [inhibitor, single point]
71 | Cc1ccc(N2C(=O)NC(=O)C(CCc3ccccn3)(Cc3cccc(Cl)c3Cl)C2=O)cc1 (stereo unspecified) | inactive: 2.08% | –
